Reference: the supplement of paper PMC10369915
The other results are listed elsewhere or left out. Rule as the data show it: active = 3.2 or more and inactive = the rest. Only a few entries rise above the background.

What was measured:
Test in all cases: enrichment score (SH2-bound / input frequency) (ratio); bacterial display of known human phosphotyrosine sites (pTyr-Var adds point mutants) read by sequencing; higher = stronger binding; tyrosines were phosphorylated by kinases first
Conditions in all cases: peptide library: Human pTyr
SHP2 C-SH2 domain E139D = biological target: SHP2 C-SH2 domain E139D
[1] = biological target: SHP2 C-SH2 domain wild-type
SHP2 N-SH2 domain L43F = biological target: SHP2 N-SH2 domain L43F
SHP2 N-SH2 domain T42A = biological target: SHP2 N-SH2 domain T42A
SHP2 N-SH2 domain T52S = biological target: SHP2 N-SH2 domain T52S
[2] = biological target: SHP2 N-SH2 domain wild-type

Measured: enrichment score
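Also: displayed peptides selected on beads carrying the immobilized SH2 domain, with library peptides lacking any tyrosine serving as negative controls.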

B1: PTK2_HUMAN_1007 (peptide)
chain: KMKLAQQYVMTSLQQ
inactive: SHP2 C-SH2 domain E139D 1.53 | [1] 1.34 | SHP2 N-SH2 domain L43F 1.25 | SHP2 N-SH2 domain T42A 1.27 | SHP2 N-SH2 domain T52S 1.21 | [2] 1.82

B2: PPIP2_HUMAN_329 (peptide)
chain: NYSLVDDYSLLYQGG
inactive: SHP2 C-SH2 domain E139D 0.992 | [1] 0.745 | SHP2 N-SH2 domain L43F 0.735 | SHP2 N-SH2 domain T42A 0.596 | SHP2 N-SH2 domain T52S 0.489 | [2] 0.733

B3: ARHGDIB_HUMAN_153 (peptide)
chain: YGPRPEEYEFLTPVE
inactive: SHP2 C-SH2 domain E139D 1.38 | [1] 1.28 | SHP2 N-SH2 domain L43F 1.22 | SHP2 N-SH2 domain T42A 0.842 | SHP2 N-SH2 domain T52S 1.08 | [2] 1.74

B4: PSA2_HUMAN_76_YA (peptide)
chain: TKHIGLVYSGMGPDA
inactive: SHP2 C-SH2 domain E139D 0.734 | [1] 0.603 | SHP2 N-SH2 domain L43F 0.544 | SHP2 N-SH2 domain T42A 0.58 | SHP2 N-SH2 domain T52S 0.97 | [2] 0.762

B5: PSMA7_HUMAN_106_YA (peptide)
chain: EDPVTVEYITRAIAS
inactive: SHP2 C-SH2 domain E139D 0.648 | [1] 0.531 | SHP2 N-SH2 domain L43F 0.537 | SHP2 N-SH2 domain T42A 0.548 | SHP2 N-SH2 domain T52S 0.776 | [2] 0.74

B6: PROM1_HUMAN_852_YA (peptide)
chain: GAHKDHVYGIHNPVM
inactive: SHP2 C-SH2 domain E139D 0.814 | [1] 0.64 | SHP2 N-SH2 domain L43F 0.592 | SHP2 N-SH2 domain T42A 0.671 | SHP2 N-SH2 domain T52S 0.582 | [2] 0.99

B7: PSA2_HUMAN_76 (peptide)
chain: TKHIGLVYSGMGPDY
inactive: SHP2 C-SH2 domain E139D 0.946 | [1] 0.932 | SHP2 N-SH2 domain L43F 0.946 | SHP2 N-SH2 domain T42A 0.955 | SHP2 N-SH2 domain T52S 1.03 | [2] 1.33

B8: PTEN_HUMAN_336 (peptide)
chain: NKDKANRYFSPNFKV
inactive: SHP2 C-SH2 domain E139D 1.33 | [1] 1.35 | SHP2 N-SH2 domain L43F 1.24 | SHP2 N-SH2 domain T42A 1.06 | SHP2 N-SH2 domain T52S 1.24 | [2] 1.62

B9: PTK6_HUMAN_61_YA (peptide)
chain: GGAVAQGYVPHNALA
inactive: SHP2 C-SH2 domain E139D 0.608 | [1] 0.498 | SHP2 N-SH2 domain L43F 0.592 | SHP2 N-SH2 domain T42A 0.521 | SHP2 N-SH2 domain T52S 0.54 | [2] 0.63

B10: PTEN_HUMAN_174 (peptide)
chain: TIPSQRRYVYYYSYL
inactive: SHP2 C-SH2 domain E139D 2.31 | [1] 2.74 | SHP2 N-SH2 domain L43F 1.93 | SHP2 N-SH2 domain T42A 2.36 | SHP2 N-SH2 domain T52S 3.08 | [2] 2.32

B11: PPIP2_HUMAN_329_YA (peptide)
chain: NASLVDDYSLLAQGG
inactive: SHP2 C-SH2 domain E139D 0.583 | [1] 0.609 | SHP2 N-SH2 domain L43F 0.562 | SHP2 N-SH2 domain T42A 0.629 | SHP2 N-SH2 domain T52S 0.528 | [2] 0.515

B12: PRC2A_HUMAN_1094 (peptide)
chain: TRSEGSEYEEIPKRR
inactive: SHP2 C-SH2 domain E139D 0.691 | [1] 0.882 | SHP2 N-SH2 domain L43F 1.29 | SHP2 N-SH2 domain T42A 0.665 | SHP2 N-SH2 domain T52S 0.558 | [2] 0.837

B13: PTGS2_HUMAN_446 (peptide)
chain: DQSRQMKYQSFNEYR
inactive: SHP2 C-SH2 domain E139D 0.695 | [1] 0.607 | SHP2 N-SH2 domain L43F 0.735 | SHP2 N-SH2 domain T42A 0.6 | SHP2 N-SH2 domain T52S 0.892 | [2] 0.788

B14: PTEN_HUMAN_377_YA (peptide)
chain: SDNEPDHYRASDTTD
inactive: SHP2 C-SH2 domain E139D 0.808 | [1] 0.784 | SHP2 N-SH2 domain L43F 1.03 | SHP2 N-SH2 domain T42A 1.01 | SHP2 N-SH2 domain T52S 0.99 | [2] 0.933

B15: ARHGDIA_HUMAN_156_YA (peptide)
chain: AGPRAEEYEFLTPVE
inactive: SHP2 C-SH2 domain E139D 0.927 | [1] 0.589 | SHP2 N-SH2 domain L43F 0.393 | SHP2 N-SH2 domain T42A 0.813 | SHP2 N-SH2 domain T52S 0.741 | [2] 0.805

B16: A4_HUMAN_497 (peptide)
chain: VFNMLKKYVRAEQKD
inactive: SHP2 C-SH2 domain E139D 1.79 | [1] 1.48 | SHP2 N-SH2 domain L43F 1.36 | SHP2 N-SH2 domain T42A 1.46 | SHP2 N-SH2 domain T52S 1.61 | [2] 1.89

B17: PLXB1_HUMAN_1732 (peptide)
chain: SVTGKAKYTLNDNRL
inactive: SHP2 C-SH2 domain E139D 1.17 | [1] 0.9 | SHP2 N-SH2 domain L43F 0.972 | SHP2 N-SH2 domain T42A 0.949 | SHP2 N-SH2 domain T52S 1.06 | [2] 1.01

B18: ARPC3_HUMAN_47_YA (peptide)
chain: DIVDEAIYAFKANVF
inactive: SHP2 C-SH2 domain E139D 1.26 | [1] 0.999 | SHP2 N-SH2 domain L43F 1 | SHP2 N-SH2 domain T42A 1.05 | SHP2 N-SH2 domain T52S 1.09 | [2] 1.13
